In the RNAGym collection of RNA variant scans (doi:10.1093/nar/gkz1192):
The source gives no read counts; variants with many changes may rest on few reads.

B1: CPEB3 Ribozyme (parent)
chain: UAACAGGGGGCCACAGCAGAAGCGUUCACGUCGCAGCCCCUGUCAGAUUCUGGUGAAUCUGCGAAUUCUGCUGUAUAUCUC

Variants of: B1
Experiment: self-cleavage, relative activity (ratio to wild type); higher = more cleavage; in vitro, sequencing
In short: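 Barcoded CPEB3 ribozyme mutants, produced by rounds of error-prone PCR, self-cleaved while being transcribed with T7 RNA polymerase for 5 hours at 37°C and during a subsequent 15 min DNase I step before EDTA was added. Sequencing of template-switched cDNA on Illumina gave cleaved and total reads, and DNA sequencing assigned barcodes to variants. Each variant's relative activity is its cleaved/total read fraction divided by the unmutated ribozyme's fraction, averaged across three batches. A variant needed a minimum of 5 reads.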
Variant U1A U49A A64G U80C has a self-cleavage of 0.47. With U1C A2C C29A U41C G53A the self-cleavage was 0.51. For U1A U26C U43C, the self-cleavage was 0.69. U1C A18U U58C gave a self-cleavage of 0.29. In the case of U1C A20G A35U U69A A77G, the self-cleavage is reported as 0.06. With U1C A13U U69C the self-cleavage was 0.4. Work on U1C A21G U78C yielded a self-cleavage of 0.42. Variant U1A U54A G73A U80A has a self-cleavage of 1.27. Variant U1A U31A U60G A65G has a self-cleavage of 0.11. With U1C A3G G6A U26C A28G the self-cleavage was 0.08. U1C A35G U66C U78C C79A showed a self-cleavage of 1.24. Variant U1A G8A A13C has a self-cleavage of 0.13. Variant U1C A20G U43A U80C has a self-cleavage of 1.06. With U1A C32A C40U C44G U49A U72G the self-cleavage was 0.05. With U1C A18C U26A A28G U58C the self-cleavage was 0.23. In the case of U1C A21G C39U, the self-cleavage is reported as 0.4. Variant U1C A2U A5G G7A A65G U67C has a self-cleavage of 0.2. In the case of U1C A13U A20G C29A U67C C68G U76C, the self-cleavage is reported as 0.14. Work on U1A U48C C71G yielded a self-cleavage of 0.15. For U1C A15G U51C, the self-cleavage was 0.38. Work on U1C A18G C32A C37A A45G U69A yielded a self-cleavage of 0.15. Variant U1A G36C C62G A65C U76C C79U has a self-cleavage of 0.12. U1C A5G U74C U80C gave a self-cleavage of 1.15. Variant U1C A15G C23U G42C A57U has a self-cleavage of 0.04. With U1A G9A G19A A28G A45C the self-cleavage was 0.06. U1C A18G C50A gave a self-cleavage of 0.3. U1C A20U C37A showed a self-cleavage of 0.24. In the case of U1C A56U U66C, the self-cleavage is reported as 0.25. U1C A57G U69A showed a self-cleavage of 0.56. For U1C A15C U25C U41G, the self-cleavage was 0.03. U1C A35U U41C showed a self-cleavage of 0.48. Work on U1C A13U A20G U26C A35G U78C yielded a self-cleavage of 0.76. With U1A U25C U74C the self-cleavage was 0.87. Work on U1C A3G U76A yielded a self-cleavage of 0.96. Variant U1C A28G U51A U74C has a self-cleavage of 1.11. Variant U1C A5U G19U has a self-cleavage of 0.12. With U1A U41C U43A U51A the self-cleavage was 0.54. With U1C A13U A35G U58A the self-cleavage was 1.12. With U1C A35G A64U the self-cleavage was 1.06. With U1C A15G U67C the self-cleavage was 0.14. Variant U1A U26C U80C has a self-cleavage of 0.55. Work on U1A G10U U31C A64G U69C U78C yielded a self-cleavage of 0.06. U1A U43C U69C U78A gave a self-cleavage of 0.17. Work on U1A U60C U76G yielded a self-cleavage of 0.09. For U1A G9A U49A U67A, the self-cleavage was 0.05. Work on U1C A13G A28G C39U yielded a self-cleavage of 0.15. U1A G6C C32U showed a self-cleavage of 0.42. U1C A21G U43C A64G A65G gave a self-cleavage of 0.51. U1A G7A U25A A35G A57G showed a self-cleavage of 0.19. U1C A21C A28G A56C U67C U78C gave a self-cleavage of 0. For U1C A20U U54C U72A, the self-cleavage was 0.18. U1C A47C A64G showed a self-cleavage of 0.4. In the case of U1C A57G C68U U72A, the self-cleavage is reported as 0.15. In the case of U1A U43C A65G, the self-cleavage is reported as 0.23. Variant U1C A3G U43C has a self-cleavage of 0.66. With U1C A18U A65G U76A the self-cleavage was 0.32. U1C A15U C17U U43A A64G gave a self-cleavage of 0.29. U1C A18U U60A gave a self-cleavage of 0.25. Work on U1C A2G A15G U26C A56G yielded a self-cleavage of 0.22. For U1C A3G A20U A28G U69C, the self-cleavage was 0.26. U1A G6U A20G U31A U43C U54C U72C gave a self-cleavage of 0.18. Work on U1C A18U C27G A57G yielded a self-cleavage of 0.19. U1C A2G U43A U76C gave a self-cleavage of 1.05. U1A U31C A47C U54C U74A gave a self-cleavage of 0.32. With U1C A5C A20G the self-cleavage was 0.67. In the case of U1C A20U U67A, the self-cleavage is reported as 0.68. U1C A13G G16A G24A A64G gave a self-cleavage of 0.12. U1A U31A C34A U49A gave a self-cleavage of 0.13. For U1C A35U U43A U54C U60A, the self-cleavage was 0.2. U1C A13G U25C U72A gave a self-cleavage of 0.3. U1A G6U A20G G63C A64G showed a self-cleavage of 0.35. With U1C A3G U51A A65G the self-cleavage was 0.51. Variant U1C A35G U58C A64G has a self-cleavage of 1.02. For U1C A28C A64G U67A U72C, the self-cleavage was 0.15. U1C A35G A65G A75G gave a self-cleavage of 0.97. Work on U1C A28C U41C A45G yielded a self-cleavage of 0.38. U1C A2U A65G U80C gave a self-cleavage of 0.43. With U1C A28G U31C C32U G33A U72A the self-cleavage was 0.08. Work on U1C A3G A5G A21G C68A yielded a self-cleavage of 0.31. U1C A21U U25C showed a self-cleavage of 0.33. In the case of U1C A21G U43C C79U, the self-cleavage is reported as 0.55. Work on U1C A57G A75U yielded a self-cleavage of 0.74. Work on U1C A20G U25A U26C U74C yielded a self-cleavage of 0.37. Variant U1A C32U U54C A56C has a self-cleavage of 0.06. Work on U1A U26C A35U U54A U69C yielded a self-cleavage of 0.21. Work on U1A G52A U66A yielded a self-cleavage of 0.43. For U1C A18G A20G G22A U31C, the self-cleavage was 0.26. Variant U1C A20G U41C C71A A77G U80C has a self-cleavage of 0.37. U1A U58A A65G U80A gave a self-cleavage of 0.04. U1A G33U A35U U51A G63C showed a self-cleavage of 0.12. Variant U1A U26A U31A U41C U58C U74C has a self-cleavage of 0.22. With U1C A13G U51A U69G U78C the self-cleavage was 0.48. In the case of U1C A13G A15C, the self-cleavage is reported as 0.6. For U1C A2U A56U U72A, the self-cleavage was 0.34. With U1A U25C C37U G52A the self-cleavage was 0.12. In the case of U1C A45U U66A, the self-cleavage is reported as 0.08. Work on U1C A5U G19U C71A yielded a self-cleavage of 0.06. In the case of U1A G24A A56U C59U, the self-cleavage is reported as 0.15. For U1A U25C C29A U31C U49C U58C U72C, the self-cleavage was 0.09. U1A G9A C12U U26C U48C U60C gave a self-cleavage of 0.05. U1A G33A G42A A57G showed a self-cleavage of 0.13. Variant U1C A5U A28G A35U C50U has a self-cleavage of 0.35. Work on U1C A18U U58C U67C yielded a self-cleavage of 0.13. U1A G10A C11U U43G A47U U74C A75C showed a self-cleavage of 0.22. For U1C A2G C14U A18U U48C, the self-cleavage was 0.07. In the case of U1C A13C U80C, the self-cleavage is reported as 0.82. In the case of U1C A45U A56G, the self-cleavage is reported as 0.36. In the case of U1C A13C A35U, the self-cleavage is reported as 0.27. In the case of U1A U54A A77U, the self-cleavage is reported as 0.67. Work on U1C A13C A15G U41C U51C U60C yielded a self-cleavage of 0.42. Variant U1C A2G A15G U25A U26C U72A A77G has a self-cleavage of 0.25. Work on U1C A2G G9U U49C U74C yielded a self-cleavage of 0.06. With U1A C44U A56G C71U the self-cleavage was 0.07. In the case of U1C A5U A35G C37U U43C U69C, the self-cleavage is reported as 0.52. Work on U1C A18G U26C U31A A47G U66A U67C yielded a self-cleavage of 0.04. With U1C A21G A45C the self-cleavage was 0.21. With U1C A3G A45G U51A A75U the self-cleavage was 0.73. In the case of U1C A18U A21G C32G A47U U69A, the self-cleavage is reported as 0.15. With U1C A3G C11G A18G the self-cleavage was 0.63. U1C A5U U41C A64G gave a self-cleavage of 0.46. U1C A13G U26C showed a self-cleavage of 0.15. Variant U1C A5G G9A has a self-cleavage of 0.44. U1C A45G U58C showed a self-cleavage of 0.25. With U1C A2U A15U U43C U67C U72C the self-cleavage was 0.12. U1C A20G A77C showed a self-cleavage of 0.27. U1C A21U A47U U49C U74A A75G gave a self-cleavage of 0.04. With U1C A20G U72C the self-cleavage was 0.43. With U1C A2G A5U C11U A28G the self-cleavage was 0.21. U1A U49C A57U U60C U78C gave a self-cleavage of 0.14. Work on U1C A3G U25C A35G U43G yielded a self-cleavage of 0.19. Variant U1A U31C U72C has a self-cleavage of 0.85. Variant U1A U25C G30A U31C A45U A56G A75G has a self-cleavage of 0.1. For U1C A21U U31A U41A G42U, the self-cleavage was 0.11. U1A C29U A47U gave a self-cleavage of 0.25. For U1A U74C U78C, the self-cleavage was 1.19. U1C A15G C23U G42U U74C showed a self-cleavage of 0.05. U1A C29U U60A gave a self-cleavage of 0.58. Variant U1C A35G U43C A65G U72C has a self-cleavage of 0.64. U1C A18C A35G U67C U72C U74A showed a self-cleavage of 0.28. Work on U1A G10A C39G yielded a self-cleavage of 0.1. For U1A U49A U78G, the self-cleavage was 0.57. Variant U1C A5G G33A A64G has a self-cleavage of 0.08. With U1A U43A A45G A56U U60A U67A U74C the self-cleavage was 0.12. Work on U1C A15G U25C yielded a self-cleavage of 0.35. With U1A G9A A28G U60C U80C the self-cleavage was 0.05. Variant U1C A15G A20G A45G A47C A64G has a self-cleavage of 0. In the case of U1A C40U U51A, the self-cleavage is reported as 0.75. Work on U1C A15G U72C yielded a self-cleavage of 0.99. U1C A18C A47G A57G U69C U74C showed a self-cleavage of 0.09. U1C A3G A15U U26C U48C U66A showed a self-cleavage of 0.09. U1C A18U U25C U43C U54C U76C gave a self-cleavage of 0.22. In the case of U1A G8U U25C U49A U54A A64G U66C, the self-cleavage is reported as 0.05. With U1C A20G A28G U74A the self-cleavage was 0.53. Work on U1C A15G U25C G46A U49C U66C U78C yielded a self-cleavage of 0.04. For U1C A13U A18G C29U U43C, the self-cleavage was 0.08. With U1C A18G U25C the self-cleavage was 0.41. For U1C A20G U25C A35G U43A, the self-cleavage was 0.18. U1C A2U A35U U74C A75U showed a self-cleavage of 0.69. U1A U26C A47G U51A gave a self-cleavage of 0.34. Work on U1C A15G A21U U80A yielded a self-cleavage of 0.46. Work on U1C A13C C23U U49C U58C U60A U72A yielded a self-cleavage of 0.06. Work on U1C A5U A35U yielded a self-cleavage of 0.67. U1C A15G U25A U41A showed a self-cleavage of 0.8. U1C A35U U74A gave a self-cleavage of 0.78. U1C A56G A64U U69A U80A gave a self-cleavage of 0.2. For U1A U43A U54C A64G, the self-cleavage was 1.01. Variant U1C A2G A21U A64U A65U has a self-cleavage of 0.05.
